# Experimental data as given in paper PMC4336329 (PLoS ONE, 2015).
# Hit rate of the full screen: of about 310,000 compounds, about 2,200 (0.71%) showed an effect of 50% or more. The effect is printed as a negative number. Some of the results follow.
# Biological target: human ether-à-go-go-related gene (hERG) potassium channel (human, UniProt Q12809)
# Test: primary screen, population patch clamp on CHO cells stably expressing hERG
# Sequence of human ether-à-go-go-related gene (hERG) potassium channel (Q12809 whole entry, looked up): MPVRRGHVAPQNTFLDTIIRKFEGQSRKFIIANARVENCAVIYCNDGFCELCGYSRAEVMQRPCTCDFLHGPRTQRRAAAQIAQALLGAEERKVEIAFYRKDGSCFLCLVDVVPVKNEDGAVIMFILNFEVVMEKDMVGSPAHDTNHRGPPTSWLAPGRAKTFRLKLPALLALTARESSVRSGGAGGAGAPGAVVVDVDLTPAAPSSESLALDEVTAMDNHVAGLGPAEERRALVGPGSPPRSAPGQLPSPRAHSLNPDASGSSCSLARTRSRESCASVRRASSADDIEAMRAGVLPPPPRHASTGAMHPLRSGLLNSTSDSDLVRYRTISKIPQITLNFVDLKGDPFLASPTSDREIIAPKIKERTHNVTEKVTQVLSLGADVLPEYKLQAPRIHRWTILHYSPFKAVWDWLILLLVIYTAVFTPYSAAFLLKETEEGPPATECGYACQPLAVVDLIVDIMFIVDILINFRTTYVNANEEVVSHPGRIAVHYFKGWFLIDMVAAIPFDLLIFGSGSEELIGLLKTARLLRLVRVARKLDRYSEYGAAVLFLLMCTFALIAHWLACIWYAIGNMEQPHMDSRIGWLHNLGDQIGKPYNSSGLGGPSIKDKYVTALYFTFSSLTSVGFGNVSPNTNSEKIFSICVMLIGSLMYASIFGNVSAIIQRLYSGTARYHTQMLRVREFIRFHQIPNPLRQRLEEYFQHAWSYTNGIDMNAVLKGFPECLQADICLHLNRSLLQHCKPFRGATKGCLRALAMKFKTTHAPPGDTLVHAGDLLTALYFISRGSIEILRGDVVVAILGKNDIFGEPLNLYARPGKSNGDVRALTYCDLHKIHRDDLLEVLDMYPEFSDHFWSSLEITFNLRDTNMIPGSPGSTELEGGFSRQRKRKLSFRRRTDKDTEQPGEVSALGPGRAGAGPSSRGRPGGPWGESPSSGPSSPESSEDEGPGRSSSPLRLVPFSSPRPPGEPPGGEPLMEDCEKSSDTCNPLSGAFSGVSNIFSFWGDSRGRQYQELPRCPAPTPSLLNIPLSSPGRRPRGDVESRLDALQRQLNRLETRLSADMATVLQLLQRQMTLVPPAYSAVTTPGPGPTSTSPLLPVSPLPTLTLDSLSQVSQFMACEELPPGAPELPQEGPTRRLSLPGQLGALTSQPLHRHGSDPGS
row,Compound,"hERG current change (%, negative = inhibition) at 1uM [%]"
1,O=C(c1c(Cl)cccc1Cl)N1CCN(c2ncccn2)CC1,9.39
2,N=C1C(c2nc3ccccc3c(=O)[nH]2)=C(O)CN1CCc1ccccc1,12.5
3,CN1CCN(C(=O)C2=C[C@@H](c3coc4ccccc4c3=O)C[C@@H](OCc3ccc(CO)cc3)O2)CC1,6.95
4,CN(C)S(=O)(=O)c1ccc(C(=O)/C=C/c2cccnc2)cc1,11
5,CC(C)(C)OC(=O)[C@H](Cc1ccccc1)NC(=O)c1nc[nH]c1C(=O)N1CCN(C(=O)OC(C)(C)C)CC1,-12.8
6,COc1ccc(CC(=O)Nc2ccccc2C(=O)N2CCOCC2)cc1OC,11.9
7,N#CCSc1nnc(N)s1,5.3
8,Cc1cccc(C(=O)Nc2ccccc2C(=O)NCc2ccco2)c1,8.71
9,CCOC(=O)c1cnc(SC)nc1Oc1cccc(NS(=O)(=O)c2ccc(C)cc2)c1,1.65
10,CN(C)c1ccc(S(=O)(=O)N2CCCCC2)cc1NC(=O)COc1ccccc1F,-2.54
11,Cn1cc(/C=N/Nc2ccccc2)c2ccccc21,18.3
12,O=C(O)c1cccc(CSc2ncn[nH]2)c1,3.9
13,O=C(Cc1cccs1)Nc1nnc(-c2ccc(F)cc2)s1,2.8
14,Cc1nc(=O)c(-c2ccccc2)c(C)n1-c1cccc(C(=O)O)c1,13
15,O=C(O)c1c(Cl)c(Cl)c(Cl)c(Cl)c1C(=O)N1CCOCC1,13.8
16,O=C1CSC(=Nc2ccc(Cl)cc2)N1Cc1cccnc1,6.05
17,O=C(N/N=C/c1c[nH]c2ccccc12)C1COc2ccccc2O1 (centres unmarked),6.51
18,COC(=O)C(CC(C)C)NC(=O)c1cccs1 (centres unmarked),13.5
19,O=C(c1ccc(S(=O)(=O)Cc2ccccc2Cl)c([N+](=O)[O-])c1)N1CCN(c2ccccn2)CC1,5.86
20,CC(=O)C(Cc1cccc(F)c1)(Cc1cccc(F)c1)C(C)=O,7.8
21,O=C(CN1C(=O)NC(Cc2c[nH]c3ccccc23)C1=O)NCC(F)(F)F (centres unmarked),15.9
22,O=c1[nH]c(=S)ccn1C1OC(CO)C(O)C1O (centres unmarked),15.4

row,Compound,"hERG current change (%, negative = inhibition) at 1uM [%]"
1,O=C(CC(=O)NCc1ccc(Cl)cc1)NCc1ccccc1,5.17
2,O/N=C1\CCCCc2ccccc21,14.4
3,CNS(=O)(=O)c1ccc(NC(=O)c2ccc(Cl)cc2Cl)cc1,12.5
4,Cc1cnc(C(=O)OCC(=O)Nc2sc3c(c2C#N)CCC3)cn1,0.245
5,Cc1cc(C)n(Cc2ccc(Cl)nc2)n1,11.9
6,N#CCNC1CC(=O)N(c2ccc(F)cc2)C1=O (centres unmarked),7.69
7,CCO[C@H]1OC(C(=O)NCc2ccccc2)=C[C@@H](c2ccc3c(c2)OCO3)[C@@H]1CCCO,-1.53
8,COc1ccc(NC(=O)c2cc(S(=O)(=O)N3CCCC3)ccc2OC)cc1,9.6
9,O=C(CSc1ccc(-c2ccc(F)cc2)nn1)NCc1ccco1,13.2
10,CCc1ccc(NC(=O)CCS(=O)(=O)c2ccc3c(c2)CCN3C(C)=O)cc1,17.6
11,CCN1C(=O)c2cccc3c(NC(=O)c4ccccc4)ccc1c23,10
12,NC(=O)c1ccc(NC(=O)c2ccc3c(c2)CCN3S(=O)(=O)c2ccccc2)cc1,12.1
13,CC(=O)c1nc(N2C(=O)CC(Cc3ccc(C)cc3)C2=O)sc1C (centres unmarked),8.47
14,Cc1nc(SCC(=O)CC(=O)OC(C)C)c(C#N)c(C)c1C,-2.17
15,Cc1ccc(C(=O)OCC(=O)NC(=O)NCc2ccccc2)cc1C,10.1
16,Cc1ccc(C(C(=O)NC2CCCC2)N2CCCC(C)C2)cc1 (centres unmarked),10.4
17,CCCCNC(=O)c1cnc2n(c1=O)CCS2,3.48
18,Cc1c(C(=O)NC(=S)Nc2ccc(NC(=O)c3cccs3)cc2)cccc1[N+](=O)[O-],5.09
19,Cc1noc(C(=O)Nc2cccc(Cl)c2)c1Cl,20
20,Cc1cc([N+](=O)[O-])cnc1Sc1nccn1C,8.62
21,CCC(C(=O)OC)(C(=O)OC)c1ccc([N+](=O)[O-])cc1,9.67
22,CC12CCC(C(=O)N3CCN(Cc4ccccc4)CC3)(OC1=O)C2(C)C (centres unmarked),14.9
